A word on the EC50 (read off the curve): it is the concentration giving half of the maximal effect.

The target in assay [1] is human CD137 mutant Hu_GT150AA on HEK293F cells (human, UniProt Q07011 18-255). Nature of the assay: FACS, HEK293F.
Assay [2] has as its target human CD137 mutant Hu_PW135AA on HEK293F cells (human, UniProt Q07011 18-255). Nature of the assay: FACS, HEK293F. Background: In flow cytometry, cells or beads pass a laser one at a time.
The target of assay [3] is T1, full-length monkey CD137 on the cell surface (cynomolgus monkey, UniProt Q07011 24-179 (human entry)).
T1 chain: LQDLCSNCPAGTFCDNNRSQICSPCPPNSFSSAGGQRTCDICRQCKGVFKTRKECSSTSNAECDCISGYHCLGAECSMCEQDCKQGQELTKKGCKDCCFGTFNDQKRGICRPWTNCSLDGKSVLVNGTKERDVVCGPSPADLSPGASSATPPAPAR
Nature of the assay: flow cytometry, PMA + ionomycin activated T cells, MFI against log[Ab](nM).

B1: AG10131 (antibody, human IgG4 S228P, kappa)
heavy: EVQLVESGGGLVQPGGSLRLSCAASGFSLSTGGVGVGWIRQAPGKGLEWLALIDWADDKYYSPSLKSRLTISRDNSKNTLYLQLNSLRAEDTAVYYCARGGSDTVIGDWFAYWGQGTLVTVSSASTKGPSVFPLAPCSRSTSESTAALGCLVKDYFPEPVTVSWNSGALTSGVHTFPAVLQSSGLYSLSSVVTVPSSSLGTKTYTCNVDHKPSNTKVDKRV[human IgG4 Fc with S228P (EU numbers) skipped]
light: DIQLTQSPSSLSASVGDRVTITCRASQSIGSYLAWYQQKPGKAPKLLIYDASNLETGVPSRFSGSGSGTDFTLTISSLQPEDFATYYCQQGYYLWTFGQGTKVEIKRTVAAPSVFIFPPSDEQLKSGTASVVCLLNNFYPREAKVQWKVDNALQSGNSQESVTEQDSKDSTYSLSSTLTLSKADYEKHKVYACEVTHQGLSSPVTKSFNRGEC
notes: IgG4 (S241P); also called AG10131-IgG4
As to B1, the binding result in assay [1] and in assay [2] was “binds” in each case. In assay [3], the “EC50 (read off the curve)” value is approximately 0.8 nM.

Values taken from patent US20200369776A1 (ADAGENE, published 2020).
